Source: the supplement of paper PMC11417369
± gives the standard deviation of the averaged measurements. The list shows a part of the results.

The sequences below were run on PfAP2-G AP2 domain (GST-tagged) (assay: gcPBM binding intensity (ln(normalized median fluorescence intensity)); higher = stronger DNA binding).
Outline: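 Plasmodium falciparum DNA-binding domains carrying a GST tag were expressed in E. coli and applied for 1 h, at about 25 μg on average, to an Agilent 4 × 180k array. The array held primer-extended double-stranded 36-bp intergenic genomic probes together with negative controls, and binding took place in 1× PBS with 1% milk, 0.2 mg/ml BSA, 0.5% salmon testes DNA and 0.03% Triton X-100. An Alexa488 anti-GST antibody detected bound protein, and the array was scanned at 488 nm. Binding intensity is taken as the highest Masliner-normalised natural-log median intensity across replicate spots of either probe orientation.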

Row | Sequence | gcPBM binding intensity (ln)
1 | TTTATTATATAAACATGTACACAATTTGGTATATTC [XGTACX_site3112] | 11.5 ± 0.72
2 | ACAGCCAATACGGAAACACACAAGTTATTTTATCAT [CACACA_site5507] | 10.07 ± 0.021
3 | AATTTTATACGATAAACATGCAAATAAATAAATAAA [TGCATGCA_site227] | 9.985 ± 0.064
4 | ATATAAATTCAAATTACACACATTTATTTTTTTTAC [CACACA_site53] | 9.88 ± 0.19
5 | AAATTATGCATCGAGGTGCGTCTTAAAATATAGTGG | 10.2 ± 0.11
6 | CTACATAATAAAAAAAGTACATTCTAATAAATTGAC [XGTACX_site4504] | 11.4 ± 0.85
7 | ACTAATAATTTGTCGGTGCATAAAATTATTTTTATT [GTGCAC_site9840] | 10.3 ± 0.22
8 | ATATATGTAACATATTGTACATATATGTATGTATGT [XGTACX_site3281] | 11.3 ± 0.77
9 | ATGATAAAATTATGTAGTACATATTTGAATGTAAAT [XGTACX_site688] | 11.5 ± 0.74
10 | GTATTAATAAAAATACGTACTTATTATTTATAATAA [XGTACX_site7672] | 11.5 ± 1.1
11 | ATTATTCATATAACACGTACAAAACGAAAAACAAAT [XGTACX_site3873] | 11.3 ± 0.58
12 | AATATCACCACATTGTTACTATAATATATAAAAAAG [XGTACX_negctrl_site384] | 10.2 ± 0.26
13 | AAAAGGAGAAATATTGCACACGTGCAAAATGGTATG [CACACA_site4300] | 10.1 ± 0.021
14 | TAATTTCTTATGTAGTGTACAAATAATATATGATAT [XGTACX_site597] | 11.1 ± 0.72
15 | AATATCTGTATATCCACACACATATATATATATATA [CACACA_site4987] | 10.1 ± 0.099
16 | TAATCGGTAATATTAACACACACATTTATATATATT [CACACA_site8274] | 10.05 ± 0.078
17 | ATTTTGTTATGAAACACACACATATATATATATATA [CACACA_site3650] | 10.4 ± 0.71
18 | ATTCATAAAAGTTGTACATGCAATTTTTTTTTTTTT [TGCATGCA_site270] | 11.2 ± 0.71
19 | AATAAAATAATCCAAGTGCATATGTAAAAATACATT [GTGCAC_site9576] | 9.95 ± 0.071
20 | AATATATGTAAATGGACACACACATATATATATATA [CACACA_site9220] | 10.7 ± 0.57
21 | AAAAAAAAAAGACACACACACACACGCATATACATA [CACACA_site7289] | 10.2 ± 0.27
22 | TACGTAAAAATAATACGTACATATATTTATAGAAAA [XGTACX_site4959] | 11.6 ± 0.93
23 | ACGGACAATACGGAAACACACAAGTTATTTTATCAT [CACACA_site7310] | 10.19 ± 0.035

Row | Sequence | gcPBM binding intensity (ln)
24 | TTTTTTTTTTTTAAATGTACTTATCAACTTTTATAT [XGTACX_site4641] | 11 ± 0.79
25 | ACTTATATTATAAATTGTACAAATATTATATTTGGT [XGTACX_site1424] | 10.8 ± 0.48
26 | TTATTTTGTTTATTATGTACACAAAGACATAATAAT [XGTACX_site5648] | 11.3 ± 0.89
27 | CACTTACATAATTATTGTACAGATATTATCAAATAA [XGTACX_site567] | 11 ± 0.6
28 | TGACTTTGTTGAATTTGTCCTCTTAACTCATAATAT [GTGCAC_negctrl_site217] | 10.6 ± 0.48
29 | TTCTGTGTCTAAAAATGTACGGGAATATATAAAAGT [XGTACX_site2090] | 11.1 ± 0.69
30 | ACATAATATATATATTAACACACATCCTTTTATGTA [CACACA_site8317] | 10.3 ± 0.13
31 | TTTAATTTTACATGAGAAACATATTACAATAAAATA [GTGCAC_negctrl_site606] | 9.8 ± 0.2
32 | AACCATGTTAACAATGCATGCATCACTATATAAACG [TGCATGCA_site421] | 9.82 ± 0.16
33 | ATACATATATATAGGTGTACATATAATATATATATA [XGTACX_site2228] | 11.6 ± 0.83
34 | GAAATACCGGAAAGCAAACACACATTTTAAAACCAT [CACACA_site3861] | 10.09 ± 0.049
35 | ATATTTTTTGGAAAGTGTACAATATTATATATTAAA [XGTACX_site2163] | 11.2 ± 0.75
36 | ATCATATGTATGCATACACACAAAAAGTTATTTATA [CACACA_site6325] | 9.96 ± 0.13
37 | GAAAATCAGTTAAACACACACATAAAAAAAAAAAAA [CACACA_site2875] | 9.84 ± 0.4
38 | TATTTTTCTTTTTTTTTTTTTTTTATATTATACGTG [XGTACX_negctrl_site363] | 9.71 ± 0.014
39 | CTTTTTAAATTAAAATGTACAGAAAAATATTATTAT [XGTACX_site8760] | 10.9 ± 0.59
40 | CATATAAAAAAATAGACACACATTTTATATAATACG [CACACA_site1896] | 10.14 ± 0.014
41 | TATTTGTAAATCGATACACACATATATCTTAATATA [CACACA_site4273] | 9.835 ± 0.035
42 | CGGCACGTGATATATACACACATATAGATATATACA [CACACA_site6408] | 9.805 ± 0.035
43 | TGGATAATGAATGATGCACACTAAAAATATTCTACA [CACACA_site5912] | 9.94 ± 0.028
44 | CTTTTTTCAAGACACACACACAAGAAAATATAAATA [CACACA_site7455] | 10.4 ± 0.28
45 | TGTTAATTGAATGCAATCTGAATTTTTTTACATAAT [CACACA_negctrl_site1002] | 9.65 ± 0.057
